Whole data set: some 110,000 compounds, median “z-score” near -0.1, cut for the highest 2% near 2. The list shows a part of the results. Calls of active or inactive are those of the source.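 The calls were made as follows: active = z-score in the third read window above 3 or below -3; inactive = the rest.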

In the test the target is Metabotropic glutamate receptor 8 (Rattus norvegicus) (UniProt P70579). The test is described as follows: rat mGluR8 modulators via GIRK flux, primary screen, cell-based, thallium flux, HTS (AID 488969). Conditions: HEK293 rat mGluR8, GIRK (G protein-gated inwardly rectifying potassium channel) thallium flux, FluoZin2; at 10 µM; stronger effect = higher value; submaximal glutamate (EC20) added with thallium.
Chain of UniProt P70579 (P70579 whole entry, looked up): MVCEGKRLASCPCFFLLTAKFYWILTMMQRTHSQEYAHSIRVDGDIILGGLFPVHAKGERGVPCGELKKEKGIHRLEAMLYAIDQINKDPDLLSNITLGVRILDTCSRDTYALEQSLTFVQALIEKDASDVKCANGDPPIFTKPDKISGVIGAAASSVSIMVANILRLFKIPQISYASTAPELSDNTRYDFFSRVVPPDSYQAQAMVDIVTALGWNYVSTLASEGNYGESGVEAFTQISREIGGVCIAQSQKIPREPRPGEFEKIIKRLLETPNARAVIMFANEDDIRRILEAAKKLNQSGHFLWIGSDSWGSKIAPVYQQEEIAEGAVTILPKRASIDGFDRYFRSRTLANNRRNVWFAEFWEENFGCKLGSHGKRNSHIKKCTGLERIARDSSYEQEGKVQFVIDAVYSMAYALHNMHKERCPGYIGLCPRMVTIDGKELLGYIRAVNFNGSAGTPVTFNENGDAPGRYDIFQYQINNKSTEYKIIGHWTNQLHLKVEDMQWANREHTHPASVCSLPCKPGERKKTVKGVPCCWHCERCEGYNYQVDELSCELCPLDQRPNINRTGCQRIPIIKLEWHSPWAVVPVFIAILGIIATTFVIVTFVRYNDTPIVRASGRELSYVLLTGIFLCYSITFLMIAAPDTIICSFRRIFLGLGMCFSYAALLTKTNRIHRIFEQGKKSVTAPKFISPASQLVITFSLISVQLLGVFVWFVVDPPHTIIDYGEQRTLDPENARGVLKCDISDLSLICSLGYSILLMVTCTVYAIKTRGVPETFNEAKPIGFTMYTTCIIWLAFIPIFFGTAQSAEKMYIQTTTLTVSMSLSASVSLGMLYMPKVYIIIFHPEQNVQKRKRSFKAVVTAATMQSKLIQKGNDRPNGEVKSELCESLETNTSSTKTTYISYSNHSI
As to `Cc1cc(C(=O)NCc2cc(C(=O)O)oc2C)c(C)o1`, the z-score was -0.0206.

Consider `Cc1cccn2c(=O)c(C=Nc3ccccc3)c(NCCO)nc12`, for which the z-score is -0.539.

Take `COCCN1C(=O)C(O)=C(C(=O)c2cccs2)C1c1ccccc1` (centres undefined): the z-score was -0.725.

As for `CC(C)c1nccn1S(=O)(=O)c1cccc([N+](=O)[O-])c1`, the z-score was -0.678.

`COC(=O)c1[nH]c2ccc(C)cc2c1NC(=O)Nc1ccc(OC)cc1`: the z-score was -0.21.

Consider `CCOC(=O)c1sc(NS(=O)(=O)c2cc(C)ccc2C)nc1C`, for which the z-score is -0.555.

Turning to `CCCCCn1c(CCC(=O)Oc2ccccc2OC)nc2c1c(=O)[nH]c(=O)n2CCCC`, the z-score was -0.309.

As for `COc1ccc(/C(C)=N/NC(=S)NCc2ccco2)cc1`, the z-score is active: 4.34.

As for `O=C(Nc1nnc(-c2ccccc2)s1)c1cc(S(=O)(=O)N2CCOCC2)c(Cl)cc1Cl`, the z-score is -0.234.

As to `CN(C)c1ccnc(Oc2ccc(Cl)cc2)c1C#N`, the z-score was -0.151.

`CN(C)S(=O)(=O)c1cccc(C(=O)N(Cc2ccc(F)cc2)Cc2ccco2)c1` showed a z-score of 0.217.

As for `Cc1cccc(C(=O)O/N=C/c2c(N3CCOCC3)n(C)c3ccccc23)c1`, the z-score is -0.109.

`COc1ccc(-c2ccnc3nc(Sc4ncc(C(F)(F)F)cc4Cl)nn23)cc1`: the z-score was active: -3.36.

In the case of `O=C(CCNC(=O)Cn1ccc2ccccc2c1=O)NCCc1ccc(Cl)cc1`, the z-score is -0.466.

Take `C=CCn1c(SCCN2CCOCC2)nc2c1c(=O)[nH]c(=O)n2C`: the z-score is -0.0146.

In the case of `COc1ccccc1-c1nnc(NC(=O)c2ccc(S(=O)(=O)N(C)Cc3ccccc3)cc2)o1`, the z-score stood at 0.103.

As to `Cc1cc(CN2CCN(CCC#N)CC2)c(O)c(C2(C)CCCCC2)c1`, the z-score came to 0.662.

`Clc1cccc(COn2c(-c3ccc(Cl)cc3Cl)nc3ncccc32)c1` had a z-score of 0.0843.

`Cc1cc(C)n(-c2ccc(F)cc2)c(=O)c1C(=O)O` had a z-score of 1.52.

On to `CC(Sc1nnnn1-c1ccc(Cl)cc1)C(=O)NCC(=O)Nc1ccc(F)c(F)c1F` (centres undefined), for which the z-score was -0.067.

For `CCOC(=O)c1cnn(-c2nc(OCC)cc(OCC)n2)c1C`, the z-score was -0.402.

For the compound `COc1ccc(C(=S)N2CCCC2)cc1`, the z-score is -0.0384.

For the compound `COC(=O)Cn1c(=NC(=O)c2ccc(OC)c(OC)c2)sc2cc(OC)ccc21`, the z-score is -0.167.

`COc1cc(C(=O)NC(c2ccccc2)c2ccccc2)cc(Cl)c1OC` yielded a z-score of 0.243.

Consider `COc1cccc(-n2nnc3c(=O)n(Cc4ccc(Br)cc4)cnc32)c1`, for which the z-score is -0.275.

On to `CCOCCOc1nc2c(c(=O)n(C)c(=O)n2C)n1Cc1ccc(C)cc1`, for which the z-score was 0.678.

Take `CSc1nnc(NC(=O)CCc2ccccc2)s1`: the z-score is 0.2.

For `Nc1nc(SCC(=O)N2N=C3/C(=C/c4ccco4)CCCC3C2c2ccco2)n[nH]1` (centres undefined), the z-score was -0.422.

The compound `c1ccc(-c2nnc(-c3ccccc3)c(-c3c[nH]c4ccccc34)n2)cc1` registered a z-score of 0.446.

Consider `CCOc1ccc(NC(=O)CN(C)CC(=O)Nc2cc(Cl)ccc2C#N)cc1OCC`, for which the z-score is -0.41.

`CCOC(=O)c1ccc(-n2c(O)c(/C=N/NC(=O)C3COc4ccccc4O3)c3ccccc3c2=O)cc1` (centres undefined): the z-score worked out at 0.296.

Compound `Cc1c(Cl)cccc1NC(=S)NCCC(C)C` showed a z-score of 0.733.

`CSc1nc(O)c(/C=C2\C=Nc3ccccc32)[nH]1`: the z-score was -0.16.

Regarding `Cc1ccc(NC(=O)c2sc(Cl)nc2-c2ccccc2)cc1`, the z-score is -0.823.

On to `CC(=O)Nc1nnc(-c2ccc3c(c2)CCCC3)o1`, for which the z-score came to 0.0154.

For `O=c1cc[nH]c2cc(C(F)(F)F)ccc12`, the z-score stood at 0.361.

On to `O=C(Cn1cnc2ccccc2c1=O)NCc1ccco1`, for which the z-score stood at 0.0951.

Compound `COc1ccc(-c2nc(N)n(C(=O)c3ccccc3Cl)n2)cc1` gave a z-score of 0.213.

`CC1(C)CC(=O)C(/C=N/n2c(C(F)(F)F)nc3ccccc3c2=O)=C(O)C1`: the z-score is -0.706.

Regarding `O=C(COc1ccc(CO)cc1Cl)Nc1ccc(F)cc1`, the z-score amounted to 0.647.

`O=C(/C=C/c1ccc([N+](=O)[O-])cc1)NCC1CCCO1` (centres undefined): the z-score was -0.077.

Regarding `CN(C)c1nc(SCC#N)nc(N(C)C)n1`, the z-score was 0.0633.

Consider `Cc1ccc(C2(C(F)(F)F)N=C3Sc4cc(C)ccc4N3C(=O)N2)cc1` (centres undefined), for which the z-score is -0.275.

Take `O=C(CSc1ccc2nnc(-c3ccccn3)n2n1)NCC1CCCO1` (centres undefined): the z-score was -0.0414.

In the case of `CC1N(C)c2cc(NC(=O)c3ccco3)ccc2C1(C)C` (centres undefined), the z-score was -0.832.

In the case of `CNC(=S)Nc1ccc(C23CC4CC(CC(C4)C2)C3)cc1`, the z-score came to 0.295.

Consider `Cc1cccc2cc(CN(C(=O)c3cnccn3)C3CCCCC3)c(Cl)nc12`, for which the z-score is -1.1.

On to `COC(=O)c1ccc(NC(=O)CSc2nnnn2C2CCCCC2)cc1`, for which the z-score is -0.979.

`O=C(Nc1ccc(-c2csc(-c3ccccc3)n2)cc1)c1ccccc1Cl` had a z-score of 0.0278.

As to `COc1ccc(Cn2c(C3CC3)nc3ccc(NC(=O)c4ccco4)cc3c2=O)cc1`, the z-score is -0.491.

With `COc1ccc(C(=O)CCC(=O)N2CCN(c3ccc(N4CCOCC4)nn3)CC2)cc1`, the z-score came to 0.0583.

Turning to `NC(=O)CN1C(=O)C(O)(CC(=O)/C=C\C=C\c2ccccc2)c2ccccc21` (centres undefined), the z-score is -0.294.

`CCOc1ccc(NC(=S)N(Cc2ccc(N(C)C)cc2)Cc2ccco2)cc1` had a z-score of 0.23.

As for `COCCNS(=O)(=O)c1ccc(SC)cc1`, the z-score amounted to 0.384.

`S=C(NCCc1ccccn1)Nc1cccc(Cl)c1` registered a z-score of 0.189.

For `O=C(COc1ccccc1)c1cn(CC(=O)N2CCOCC2)c2ccccc12`, the z-score was -0.407.

`Cc1cc(C)n(-c2ccc(C(=O)NCc3cccs3)cc2)n1` registered a z-score of 0.0522.

Take `COc1ccc(-c2nnn(CC(=O)N3CCN(c4ccccc4OC)CC3)n2)cc1`: the z-score is -0.289.

In the case of `O=C(NCc1ccccc1)c1ccccc1OCC(=O)N1CCCCC1`, the z-score was -0.0625.

`Clc1cccc(Cl)c1CSc1nnc(CN2CCOCC2)n1-c1ccccc1` had a z-score of 0.321.

`O=C1C=C(c2cccs2)C[C@H](c2ccccc2)[C@H]1n1nnc([N+](=O)[O-])n1` came in with a z-score of 0.0163.

The compound `O=C(Nc1ccc2c(c1)OCO2)c1ccncc1` yielded a z-score of 0.114.

For `COc1ccc(-c2nnn(Cc3nc(N)nc(N4CCOCC4)n3)n2)cc1OC`, the z-score is -0.0369.

Regarding `CCN(CC)c1ccc(N=Nc2nn(C)c(C)c2[N+](=O)[O-])cc1`, the z-score was -0.829.

Compound `O=C1CC(c2ccccc2)Sc2nc(-c3ccccc3)c(-c3ccccc3)n21` (centres undefined) yielded a z-score of 0.0856.

Turning to `COc1ccccc1N1CCN(S(=O)(=O)c2cccs2)CC1`, the z-score was 0.771.

As to `Cc1ccc(-n2c(SCC(=O)N3Cc4ccccc4CC3C(=O)O)nnc2-c2cccnc2)c(C)c1` (centres undefined), the z-score is -0.28.

For `CCOC(=O)c1cc(-c2ccco2)nc2c1c(C)nn2-c1ccccc1`, the z-score is -0.0787.

Compound `CCCCNC(=O)c1onc(CSc2ccccc2)c1C(=O)O` registered a z-score of 0.0319.

`COc1ccc(S(=O)(=O)Nc2cc(C)on2)cc1OC` came in with a z-score of 0.223.

Turning to `Cc1cc2ncn(S(=O)(=O)c3ccc(S(=O)(=O)N4CCCCCC4)cc3)c2cc1C`, the z-score was -0.31.

For `COc1cc(-n2c3nc4ccccc4nc3c3c(=O)n(Cc4ccco4)cnc32)cc(OC)c1OC`, the z-score turned out to be 0.658.

As to `C=CCc1cc(/C=N/n2cnnc2)cc(OCC)c1O`, the z-score is 0.000823.

In the case of `CNC(=O)CSc1nnc(-c2ccco2)n1-c1ccccc1OC`, the z-score is 0.514.

Take `O=C(N/N=C/c1cc([N+](=O)[O-])ccc1O)c1ccc2c(c1)OCCO2`: the z-score is -0.00564.

The compound `Cc1cccc(C)c1NC(=O)C(NC(=O)c1ccccn1)c1ccccc1[N+](=O)[O-]` (centres undefined) gave a z-score of 0.95.

As to `CC(C)(C)c1ccc(C(=O)N2CCC(C(=O)NCc3ccco3)CC2)cc1`, the z-score was -0.417.

Turning to `CCOC(=O)c1cc(-c2ccccc2)sc1NC(=O)CC`, the z-score was 0.0214.

`COc1cc(OC)c(NC(=O)Cn2cccc2)cc1Cl` displayed a z-score of 0.35.

Take `CCN(CC)C(=O)CC(c1ccc(F)cc1)c1ccc(OC)cc1` (centres undefined): the z-score was -0.0671.

On to `O=C(c1cc(N2C(=O)C3C4CCC(C4)C3C2=O)ccc1Cl)N1CCN(c2ccccc2)CC1` (centres undefined), for which the z-score was -1.15.

In turn, `O=C(Nc1cccnc1)c1ccc(COCC(F)(F)F)cc1` displayed a z-score of 0.122.

Turning to `O=C(Nc1ccccc1C(=O)NCc1ccccc1)c1ccco1`, the z-score is -0.398.

As to `CCCn1c(=O)[nH]c(=O)c2c1nc(-c1ccc(OC(F)F)c(OC)c1)n2CCOC`, the z-score is -0.472.

For `CC(C)(C)OC(=O)N1CCC[C@H]1c1nnc(SCc2ccccc2Cl)o1`, the z-score was -0.184.

For the compound `CCCCSc1ncc(C(=O)OCC)c(N)n1`, the z-score was -0.0829.

With `Cc1cc(SCC#N)n2nc(C)c(-c3ccccc3)c2n1`, the z-score was -0.478.

In the case of `O=C(Nc1ccc(Oc2cccc3ccccc23)cc1)c1ccco1`, the z-score worked out at 0.993.

With `COc1ccc(OC)c(C2=Nn3c(nnc3-c3cccc(OC(C)C)c3)SC2)c1`, the z-score was -0.26.

For `CC1CCc2nc(NC(=O)C3COc4ccccc4O3)sc2C1` (centres undefined), the z-score worked out at 0.408.

The compound `CS(=O)(=O)N1CCN(Cc2ccc(C(F)(F)F)cc2)CC1` gave a z-score of 0.0896.

For `COc1ccc(CNC(=O)C(NC(C)=O)C(=O)Nc2ccc(OC)cc2)cc1` (centres undefined), the z-score was -0.149.

Compound `O=c1c2cc(Br)ccc2[nH]c(=S)n1Cc1cccnc1` displayed a z-score of 1.87.

Turning to `O=C(CSc1nc(-c2cccs2)cc(C(F)(F)F)n1)Nc1cc(OCC(F)(F)C(F)F)cc([N+](=O)[O-])c1`, the z-score was -0.0314.

As to `O=c1[nH]c(=O)n(Cc2ccco2)c2c1C(C(F)(F)F)(C(F)(F)F)N=C(Cc1ccccc1)N2`, the z-score is -0.122.

As for `CCOC(=O)CSc1nc2ccccc2c(=O)n1CC`, the z-score was -0.267.

As for `Cc1nnc(C)c2c(C)n(C(C)c3ccccc3)c(C)c12` (centres undefined), the z-score was -0.326.

With `CC(=O)n1c2c(c3ccccc31)OC(N)=C(C#N)C2c1ccc(C(C)C)cc1` (centres undefined), the z-score was 0.195.

With `COCCCn1c(SCC(=O)Nc2nnc(C)s2)nnc1-c1ccoc1C`, the z-score worked out at 0.236.

Consider `COc1ccc(C(=O)CC(=O)C(=O)NCCc2cccc(C)c2)cc1`, for which the z-score is active: 3.99.

In the case of `Cn1c(CNC(=O)c2ccco2)nnc1SCC(=O)N1c2ccccc2Sc2ccccc21`, the z-score was -0.312.

Consider `Cc1ccc(C2=NC(C)(C)N=C2SCC(=O)Nc2ccc(Cl)cc2)cc1`, for which the z-score was -0.142.

Regarding `CC(=O)C1C(c2ccc(OC(F)F)cc2)NC(=O)NC1(O)C(F)(F)F` (centres undefined), the z-score is -0.346.

`CCOc1cc(-n2ncc(C#N)c2N)nc(SC)n1` displayed a z-score of 0.205.

In the case of `CC(C)CC(=O)c1c[nH]c(C(=O)NCCc2ccccn2)c1`, the z-score is -0.112.

For `COc1ccccc1CNC(=O)CCC(=O)Nc1nnc(C)s1`, the z-score is -0.122.

On to `CCOC(=O)c1c(NC(=O)CN2CCCc3ccccc32)sc(C)c1CC`, for which the z-score was -0.409.

In the case of `CCCCn1c(S(=O)(=O)O)nc2ccccc21`, the z-score is -0.0451.

`CC1(C(=O)NC2CCCCCCC2)CCC(=O)N1CCN1CCOCC1` (centres undefined) returned a z-score of 0.242.

The values are drawn from PubChem BioAssay AID488969 (Vanderbilt High Throughput Screening Facility, 2010).
